Measured values: the supplement of paper PMC9588766
Where a name gives a salt, the structure may show the parent alone. The full ranking holds about 1,900 compounds; the median of “cell viability of compound + 1 nM pemigatinib relative to pemigatinib-only (DMSO) wells” is about 0.95, and the lowest 2% start at about 0.22. The list shows a part of the results.

These compounds were tested on PDC-DUC18828 (assay: cell viability of compound + 1 nM pemigatinib relative to pemigatinib-only (DMSO) wells (fraction); PDC-DUC18828 is a patient-derived cholangiocarcinoma cell line; higher = less growth inhibition). Settings: first compound 1 µM; pemigatinib concentration 1 nM; 72 h.
Protocol: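 Selleck Bioactive library screen in the patient-derived FGFR2 fusion-positive ICC cell line PDC-DUC18828 (500 cells/well). Each compound was tested at 1 uM with 1 nM pemigatinib, in triplicate, for 72 h. Viability was read by CellTiter-Glo and normalised to plate DMSO controls. Value is the paper's averaged normalised viability.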

| Compound | cell viability |
| --- | --- |
| CC(C)C[C@H](NP(=O)(O)O[C@@H]1O[C@@H](C)[C@H](O)[C@@H](O)[C@H]1O)C(=O)N[C@@H](Cc1c[nH]c2ccccc12)C(=O)O [Phosphoramidon Disodium Salt] + CCN1C(=O)N(c2c(F)c(OC)cc(OC)c2F)Cc2cnc3[nH]c(CN4CCOCC4)cc3c21 [pemigatinib] | 0.984 |
| COc1ccc(-c2ccc3c(N4CCOC[C@@H]4C)nc(N4CCOC[C@@H]4C)nc3n2)cc1CO + CCN1C(=O)N(c2c(F)c(OC)cc(OC)c2F)Cc2cnc3[nH]c(CN4CCOCC4)cc3c21 [pemigatinib] | 0.238 |
| COc1ccc2c(c1)CCC1C2CCC2(C)C(NCCCCCCN3C(=O)C=CC3=O)CCC12 (stereo unspecified) + CCN1C(=O)N(c2c(F)c(OC)cc(OC)c2F)Cc2cnc3[nH]c(CN4CCOCC4)cc3c21 [pemigatinib] | 0.805 |
| Nc1c(CC(=O)O)cccc1C(=O)c1ccccc1 [Amfenac Sodium Monohydrate] + CCN1C(=O)N(c2c(F)c(OC)cc(OC)c2F)Cc2cnc3[nH]c(CN4CCOCC4)cc3c21 [pemigatinib] | 0.985 |
| CC(C)(C)C(=O)Nc1ccc2c(c1)C(=O)C(=O)c1ccccc1-2 + CCN1C(=O)N(c2c(F)c(OC)cc(OC)c2F)Cc2cnc3[nH]c(CN4CCOCC4)cc3c21 [pemigatinib] | 1.04 |
| COc1ccc([C@@H]2CC(=O)c3c(O)cc(O)cc3O2)cc1O [Hesperetin] + CCN1C(=O)N(c2c(F)c(OC)cc(OC)c2F)Cc2cnc3[nH]c(CN4CCOCC4)cc3c21 [pemigatinib] | 1.06 |
| CCCc1cc(C)[nH]c(=O)c1CNC(=O)c1cc(-c2ccc(N3CCN(C(C)C)CC3)nc2)cc2c1cnn2C(C)C + CCN1C(=O)N(c2c(F)c(OC)cc(OC)c2F)Cc2cnc3[nH]c(CN4CCOCC4)cc3c21 [pemigatinib] | 0.976 |
| CC(=O)Oc1ccccc1C(=O)Nc1ncc([N+](=O)[O-])s1 [Nitazoxanide] + CCN1C(=O)N(c2c(F)c(OC)cc(OC)c2F)Cc2cnc3[nH]c(CN4CCOCC4)cc3c21 [pemigatinib] | 1.02 |
| NC(=O)c1ccc(N(C(N)=O)c2c(F)cccc2F)nc1-c1ccc(F)cc1F + CCN1C(=O)N(c2c(F)c(OC)cc(OC)c2F)Cc2cnc3[nH]c(CN4CCOCC4)cc3c21 [pemigatinib] | 0.899 |
| O=C(O)CCc1nc(-c2ccccc2)c(-c2ccccc2)o1 [Oxaprozin] + CCN1C(=O)N(c2c(F)c(OC)cc(OC)c2F)Cc2cnc3[nH]c(CN4CCOCC4)cc3c21 [pemigatinib] | 1.02 |
| O=C(O)CCCc1c[nH]c2ccccc12 [3-Indolebutyric acid (IBA)] + CCN1C(=O)N(c2c(F)c(OC)cc(OC)c2F)Cc2cnc3[nH]c(CN4CCOCC4)cc3c21 [pemigatinib] | 0.948 |
| O=C(c1cc(Cc2n[nH]c(=O)c3ccccc23)ccc1F)N1CCN(C(=O)C2CC2)CC1 + CCN1C(=O)N(c2c(F)c(OC)cc(OC)c2F)Cc2cnc3[nH]c(CN4CCOCC4)cc3c21 [pemigatinib] | 1.03 |
| O=C1c2ccccc2C(=O)C1c1ccccc1 [Phenindione] + CCN1C(=O)N(c2c(F)c(OC)cc(OC)c2F)Cc2cnc3[nH]c(CN4CCOCC4)cc3c21 [pemigatinib] | 1.03 |
| c1ccc(CC2=NCCN2)cc1 [Tolazoline HCl] + CCN1C(=O)N(c2c(F)c(OC)cc(OC)c2F)Cc2cnc3[nH]c(CN4CCOCC4)cc3c21 [pemigatinib] | 0.978 |
| CC(C)(Oc1ccc(CCNC(=O)c2ccc(Cl)cc2)cc1)C(=O)O [Bezafibrate] + CCN1C(=O)N(c2c(F)c(OC)cc(OC)c2F)Cc2cnc3[nH]c(CN4CCOCC4)cc3c21 [pemigatinib] | 0.956 |
| CC[C@H]1OC(=O)[C@H](C)[C@@H](O[C@H]2C[C@@](C)(OC)[C@@H](O)[C@H](C)O2)[C@H](C)[C@@H](O[C@@H]2O[C@H](C)C[C@H](N(C)C)[C@H]2O)[C@](C)(O)C[C@@H](C)C(=O)[C@H](C)[C@@H](O)[C@]1(C)O [Erythromycin] + CCN1C(=O)N(c2c(F)c(OC)cc(OC)c2F)Cc2cnc3[nH]c(CN4CCOCC4)cc3c21 [pemigatinib] | 1.09 |
| CO[C@H]1/C=C/O[C@@]2(C)Oc3c(C)c(O)c4c(O)c(c(/C=N/N5CCN(C)CC5)c(O)c4c3C2=O)NC(=O)/C(C)=C\C=C\[C@H](C)[C@H](O)[C@@H](C)[C@@H](O)[C@@H](C)[C@H](OC(C)=O)[C@@H]1C [Rifampin] + CCN1C(=O)N(c2c(F)c(OC)cc(OC)c2F)Cc2cnc3[nH]c(CN4CCOCC4)cc3c21 [pemigatinib] | 1.04 |
| Cc1c(Cl)cccc1Nc1ccccc1C(=O)O [Tolfenamic Acid] + CCN1C(=O)N(c2c(F)c(OC)cc(OC)c2F)Cc2cnc3[nH]c(CN4CCOCC4)cc3c21 [pemigatinib] | 0.992 |

| Compound | cell viability |
| --- | --- |
| CCCSc1ccc2[nH]c(NC(=O)OC)nc2c1 [Albendazole] + CCN1C(=O)N(c2c(F)c(OC)cc(OC)c2F)Cc2cnc3[nH]c(CN4CCOCC4)cc3c21 [pemigatinib] | 0.543 |
| CCc1ccc(CCOc2ccc(CC3SC(=O)NC3=O)cc2)nc1 (stereo unspecified) [Pioglitazone] + CCN1C(=O)N(c2c(F)c(OC)cc(OC)c2F)Cc2cnc3[nH]c(CN4CCOCC4)cc3c21 [pemigatinib] | 1.05 |
| CCc1ccc(CCOc2ccc(CC3SC(=O)NC3=O)cc2)nc1 (stereo unspecified) [Pioglitazone HCl] + CCN1C(=O)N(c2c(F)c(OC)cc(OC)c2F)Cc2cnc3[nH]c(CN4CCOCC4)cc3c21 [pemigatinib] | 1.03 |
| Cc1ccc(N(CC2=NCCN2)c2cccc(O)c2)cc1 [Phentolamine Mesylate] + CCN1C(=O)N(c2c(F)c(OC)cc(OC)c2F)Cc2cnc3[nH]c(CN4CCOCC4)cc3c21 [pemigatinib] | 1.02 |
| CC(C)Nc1cc(-c2c[nH]c(C(=O)N[C@H](CO)c3cccc(Cl)c3)c2)c(Cl)cn1 + CCN1C(=O)N(c2c(F)c(OC)cc(OC)c2F)Cc2cnc3[nH]c(CN4CCOCC4)cc3c21 [pemigatinib] | 0.726 |
| CNC[C@@H](O)c1ccc(O)c(O)c1 [L-Adrenaline] + CCN1C(=O)N(c2c(F)c(OC)cc(OC)c2F)Cc2cnc3[nH]c(CN4CCOCC4)cc3c21 [pemigatinib] | 0.943 |
| CN(C)[C@@H]1C(O)=C(C(N)=O)C(=O)[C@@]2(O)C(O)=C3C(=O)c4c(O)cccc4[C@@](C)(O)[C@H]3C[C@@H]12 [Tetracycline HCl] + CCN1C(=O)N(c2c(F)c(OC)cc(OC)c2F)Cc2cnc3[nH]c(CN4CCOCC4)cc3c21 [pemigatinib] | 0.957 |
| O=C(Nc1cc(C(F)(F)F)cc(C(F)(F)F)c1)c1cc(Cl)ccc1O + CCN1C(=O)N(c2c(F)c(OC)cc(OC)c2F)Cc2cnc3[nH]c(CN4CCOCC4)cc3c21 [pemigatinib] | 0.18 |
| C[C@H](N[C@@H](CCc1ccccc1)C(=O)O)C(=O)N1CCC[C@H]1C(=O)O [Enalaprilat Dihydrate] + CCN1C(=O)N(c2c(F)c(OC)cc(OC)c2F)Cc2cnc3[nH]c(CN4CCOCC4)cc3c21 [pemigatinib] | 1 |
| NC(=O)N1CCC(CC(=O)N2CCC([C@H]3c4ncc(Br)cc4CCc4cc(Cl)cc(Br)c43)CC2)CC1 [Lonafarnib] + CCN1C(=O)N(c2c(F)c(OC)cc(OC)c2F)Cc2cnc3[nH]c(CN4CCOCC4)cc3c21 [pemigatinib] | 0.846 |
| COCCCC/C(=N\OCCN)c1ccc(C(F)(F)F)cc1 [Fluvoxamine maleate] + CCN1C(=O)N(c2c(F)c(OC)cc(OC)c2F)Cc2cnc3[nH]c(CN4CCOCC4)cc3c21 [pemigatinib] | 0.953 |
| COC(=O)[C@H](c1ccccc1Cl)N1CCc2sccc2C1 [Clopidogrel] + CCN1C(=O)N(c2c(F)c(OC)cc(OC)c2F)Cc2cnc3[nH]c(CN4CCOCC4)cc3c21 [pemigatinib] | 0.999 |
| O=C(NOCC1CC1)c1ccc(F)c(F)c1Nc1ccc(I)cc1Cl + CCN1C(=O)N(c2c(F)c(OC)cc(OC)c2F)Cc2cnc3[nH]c(CN4CCOCC4)cc3c21 [pemigatinib] | 0.863 |
| Nc1nc(F)nc2c1ncn2[C@@H]1O[C@H](COP(=O)(O)O)[C@@H](O)[C@@H]1O [Fludarabine Phosphate] + CCN1C(=O)N(c2c(F)c(OC)cc(OC)c2F)Cc2cnc3[nH]c(CN4CCOCC4)cc3c21 [pemigatinib] | 0.985 |
| CCOC(=O)N1CCC(=C2c3ccc(Cl)cc3CCc3cccnc32)CC1 [Loratadine] + CCN1C(=O)N(c2c(F)c(OC)cc(OC)c2F)Cc2cnc3[nH]c(CN4CCOCC4)cc3c21 [pemigatinib] | 0.996 |
| O=C(COc1ccc(C(=O)c2ccccc2)cc1)NC1CCN(Cc2ccccc2)CC1 [AdipoRon] + CCN1C(=O)N(c2c(F)c(OC)cc(OC)c2F)Cc2cnc3[nH]c(CN4CCOCC4)cc3c21 [pemigatinib] | 0.987 |
| CC1(C)CCC(c2ccc(Cl)cc2)=C(CN2CCN(c3ccc(C(=O)NS(=O)(=O)c4ccc(N[C@H](CCN5CCOCC5)CSc5ccccc5)c(S(=O)(=O)C(F)(F)F)c4)cc3)CC2)C1 [ABT-263 (Navitoclax)] + CCN1C(=O)N(c2c(F)c(OC)cc(OC)c2F)Cc2cnc3[nH]c(CN4CCOCC4)cc3c21 [pemigatinib] | 0.847 |
| CS(=O)(=O)c1ccc(C(=O)Nc2ccc(Cl)c(-c3ccccn3)c2)c(Cl)c1 [Vismodegib (GDC-0449)] + CCN1C(=O)N(c2c(F)c(OC)cc(OC)c2F)Cc2cnc3[nH]c(CN4CCOCC4)cc3c21 [pemigatinib] | 1.05 |
